Some of the results follow. No stated cut-off is given here; in the data, active = 3.2 or more and inactive = the rest. Most of these values are background signal.
target: SHP2 C-SH2 domain E139D; test: enrichment score (SH2-bound / input frequency) (ratio); bacterial display of known human phosphotyrosine sites (pTyr-Var adds point mutants) read by sequencing; higher = stronger binding; tyrosines were phosphorylated by kinases first; conditions: peptide library: pTyr-Var
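Further: displayed peptides selected on beads carrying the immobilized SH2 domain, with library peptides lacking any tyrosine serving as negative controls.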

Enrichment score, inactive:
KQNSLYSFSDH [CCDC82_Y331] 0.715, DLSEVYKPCRK [CCDC93_Y176_R179C] 0.609, TVFSDYLHPQF [CCPG1_Y569_YF] 1.21, RASSVFTRSTG [CCR5_Y339_Y339F] 0.506, NSGFFYKTAEE [CCT6B_Y250] 0.847, SHLSAFPALEG [CD5_Y465_Y465F] 0.758, HDHYGYRQSVT [CD55_Y245_R240H] 1.68, HDHFGYRQSVT [CD55_Y245_R240H_YF] 2.14, NELTYYCCKKD [CD59_Y87] 0.864, AVSEGYKDFRA [CDA_Y79] 0.669, AISEGYKDFRA [CDA_Y79_V75I] 0.604, PLLEYYRDIFT [CDAN1_Y713] 1.69, DGMADYSDPSY [CDC5L_Y459] 0.425, YSDPSYVKQME [CDC5L_Y464] 0.399, CSDPSYVKQME [CDC5L_Y464_Y459C] 0.765, PIPAAYNKYDQ [CDC73_Y290_R292K] 0.482, AAFNRYDQERF [CDC73_Y293_YF] 0.824, NDKLRYEVSSP [CDH13_Y66] 0.411, NDKLCYEVSSP [CDH13_Y66_R65C] 0.737

target: SHP2 C-SH2 domain wild-type; test: as above; conditions: peptide library: pTyr-Var

Enrichment score, inactive:
KQNSLYSFSDH [CCDC82_Y331] 0.705, DLSEVYKPCRK [CCDC93_Y176_R179C] 0.617, TVFSDYLHPQF [CCPG1_Y569_YF] 0.88, RASSVFTRSTG [CCR5_Y339_Y339F] 0.446, NSGFFYKTAEE [CCT6B_Y250] 1.11, SHLSAFPALEG [CD5_Y465_Y465F] 0.721, HDHYGYRQSVT [CD55_Y245_R240H] 1.78, HDHFGYRQSVT [CD55_Y245_R240H_YF] 1.79, NELTYYCCKKD [CD59_Y87] 0.749, AVSEGYKDFRA [CDA_Y79] 0.849, AISEGYKDFRA [CDA_Y79_V75I] 0.8, PLLEYYRDIFT [CDAN1_Y713] 1.47, DGMADYSDPSY [CDC5L_Y459] 0.488, YSDPSYVKQME [CDC5L_Y464] 0.464, CSDPSYVKQME [CDC5L_Y464_Y459C] 0.896, PIPAAYNKYDQ [CDC73_Y290_R292K] 0.827, AAFNRYDQERF [CDC73_Y293_YF] 0.714, NDKLRYEVSSP [CDH13_Y66] 0.604, NDKLCYEVSSP [CDH13_Y66_R65C] 0.861

target: SHP2 N-SH2 domain L43F; test: as above; conditions: peptide library: pTyr-Var

Enrichment score, inactive:
KQNSLYSFSDH [CCDC82_Y331] 0.686, DLSEVYKPCRK [CCDC93_Y176_R179C] 0.612, TVFSDYLHPQF [CCPG1_Y569_YF] 0.765, RASSVFTRSTG [CCR5_Y339_Y339F] 0.428, NSGFFYKTAEE [CCT6B_Y250] 1.08, SHLSAFPALEG [CD5_Y465_Y465F] 0.614, HDHYGYRQSVT [CD55_Y245_R240H] 1.83, HDHFGYRQSVT [CD55_Y245_R240H_YF] 2.03, NELTYYCCKKD [CD59_Y87] 0.811, AVSEGYKDFRA [CDA_Y79] 0.816, AISEGYKDFRA [CDA_Y79_V75I] 0.798, PLLEYYRDIFT [CDAN1_Y713] 1.27, DGMADYSDPSY [CDC5L_Y459] 0.419, YSDPSYVKQME [CDC5L_Y464] 0.427, CSDPSYVKQME [CDC5L_Y464_Y459C] 0.809, PIPAAYNKYDQ [CDC73_Y290_R292K] 0.861, AAFNRYDQERF [CDC73_Y293_YF] 0.85, NDKLRYEVSSP [CDH13_Y66] 0.579, NDKLCYEVSSP [CDH13_Y66_R65C] 0.644

target: SHP2 N-SH2 domain T42A; test: as above; conditions: peptide library: pTyr-Var

Enrichment score, inactive:
KQNSLYSFSDH [CCDC82_Y331] 0.67, DLSEVYKPCRK [CCDC93_Y176_R179C] 0.561, TVFSDYLHPQF [CCPG1_Y569_YF] 1.59, RASSVFTRSTG [CCR5_Y339_Y339F] 0.432, NSGFFYKTAEE [CCT6B_Y250] 0.931, SHLSAFPALEG [CD5_Y465_Y465F] 0.636, HDHYGYRQSVT [CD55_Y245_R240H] 1.63, HDHFGYRQSVT [CD55_Y245_R240H_YF] 1.81, NELTYYCCKKD [CD59_Y87] 0.76, AVSEGYKDFRA [CDA_Y79] 0.591, AISEGYKDFRA [CDA_Y79_V75I] 0.796, PLLEYYRDIFT [CDAN1_Y713] 1.4, DGMADYSDPSY [CDC5L_Y459] 0.473, YSDPSYVKQME [CDC5L_Y464] 0.429, CSDPSYVKQME [CDC5L_Y464_Y459C] 0.725, PIPAAYNKYDQ [CDC73_Y290_R292K] 1.58, AAFNRYDQERF [CDC73_Y293_YF] 0.548, NDKLRYEVSSP [CDH13_Y66] 0.411, NDKLCYEVSSP [CDH13_Y66_R65C] 0.567

target: SHP2 N-SH2 domain T52S; test: as above; conditions: peptide library: pTyr-Var

Enrichment score, inactive:
KQNSLYSFSDH [CCDC82_Y331] 0.632, DLSEVYKPCRK [CCDC93_Y176_R179C] 0.707, TVFSDYLHPQF [CCPG1_Y569_YF] 1.12, RASSVFTRSTG [CCR5_Y339_Y339F] 0.579, NSGFFYKTAEE [CCT6B_Y250] 0.817, SHLSAFPALEG [CD5_Y465_Y465F] 0.721, HDHYGYRQSVT [CD55_Y245_R240H] 1.87, HDHFGYRQSVT [CD55_Y245_R240H_YF] 2.03, NELTYYCCKKD [CD59_Y87] 0.716, AVSEGYKDFRA [CDA_Y79] 0.643, AISEGYKDFRA [CDA_Y79_V75I] 0.867, PLLEYYRDIFT [CDAN1_Y713] 1.3, DGMADYSDPSY [CDC5L_Y459] 0.612, YSDPSYVKQME [CDC5L_Y464] 0.564, CSDPSYVKQME [CDC5L_Y464_Y459C] 0.621, PIPAAYNKYDQ [CDC73_Y290_R292K] 0.962, AAFNRYDQERF [CDC73_Y293_YF] 0.882, NDKLRYEVSSP [CDH13_Y66] 0.474, NDKLCYEVSSP [CDH13_Y66_R65C] 0.463

target: SHP2 N-SH2 domain wild-type; test: as above; conditions: peptide library: pTyr-Var

Enrichment score, inactive:
KQNSLYSFSDH [CCDC82_Y331] 0.895, DLSEVYKPCRK [CCDC93_Y176_R179C] 0.801, TVFSDYLHPQF [CCPG1_Y569_YF] 0.79, RASSVFTRSTG [CCR5_Y339_Y339F] 0.46, NSGFFYKTAEE [CCT6B_Y250] 1.1, SHLSAFPALEG [CD5_Y465_Y465F] 0.785, HDHYGYRQSVT [CD55_Y245_R240H] 1.84, HDHFGYRQSVT [CD55_Y245_R240H_YF] 2.04, NELTYYCCKKD [CD59_Y87] 0.86, AVSEGYKDFRA [CDA_Y79] 0.779, AISEGYKDFRA [CDA_Y79_V75I] 0.976, PLLEYYRDIFT [CDAN1_Y713] 1.57, DGMADYSDPSY [CDC5L_Y459] 0.468, YSDPSYVKQME [CDC5L_Y464] 0.427, CSDPSYVKQME [CDC5L_Y464_Y459C] 1.18, PIPAAYNKYDQ [CDC73_Y290_R292K] 0.903, AAFNRYDQERF [CDC73_Y293_YF] 0.911, NDKLRYEVSSP [CDH13_Y66] 0.482, NDKLCYEVSSP [CDH13_Y66_R65C] 1.01

— the supplement of paper PMC10369915
